Experimental data published in PubChem BioAssay AID651820 (National Center for Advancing Translational Sciences (NCATS), 2012).
Screen size: about 340,000 compounds; about 12,000 (3.5%) were called active. This list was built around the results that the source calls inconclusive (neither active nor inactive); the mix of calls is not that of the screen. The call rests on the fitted dose curve; in most records, active means well fitted inhibition curve with a large enough effect; inconclusive means small, poorly fitted or top-dose-only effect, or another doubt; inactive means no such curve, though single readings can be large or run the other way. No potency is given beside an inconclusive call; the fits are too rough.

Experiment: qHTS Assay for Inhibitors of Hepatitis C Virus (HCV)
Settings: Huh7.5.1 HCVcc-Cre (HCVcc is cell-culture hepatitis C virus) infection, luciferase reporter, 44 h; activity change, negative = inhibition: at 41.8 µM (top of the series) unless noted
In short: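 Whole-lifecycle infectious HCVcc-Cre system; cells 1,000/well, compound then virus (~0.5 moi) added 4 h after plating, 44 h culture. Luciferase read 15 sec following 15 min substrate incubation, room temp.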
On the % scale 0 is the no-effect control and ±100 the full control effect; potency means the concentration at half of the fitted maximal effect; tags describe the fitted curve by direction and shape.

Question: Which Potency does the source give for `COc1ccc(-c2ccc3oc(-c4ccsc4)c(-c4ccc(OC)cc4)c3c2)cc1` here?
Answer: inconclusive [inhibitor, single point]

Question: With `COc1cccc(-c2nnc(NC(=O)c3ccc4ncsc4c3)o2)c1` as the molecule, how does the Potency read?
Answer: inconclusive [inhibitor, single point]

Question: With `Cc1cc(N/N=C2\CC(C)CC(C)(C)C2)nc2ccccc12` (stereo not given) as the molecule, how does the Potency read?
Answer: inconclusive [inhibitor, single point]

Question: With `CC(C)(CO)N=C1NS(=O)(=O)c2cc([N+](=O)[O-])ccc21` as the molecule, how does the Potency read?
Answer: inconclusive [inhibitor, single point]

Question: With `C=CCNc1nc(-c2ccc(Cl)cc2)cs1` as the molecule, how does the Potency read?
Answer: inconclusive [inhibitor, partial curve]

Question: For `CCCCN(CC)CCCNC(=O)c1cn(CC)c2ccc(S(=O)(=O)N3CCc4ccccc4C3)cc2c1=O`, which Potency is on record?
Answer: inconclusive [inhibitor, partial curve]

Question: For `COC(=O)c1sccc1NC(=O)CC1C(=O)NCCN1C(=O)c1c(F)cccc1Cl` (stereo not given), which Potency is on record?
Answer: inconclusive [inhibitor, partial curve]

Question: With `Cc1cc(C)cc(NC(=O)NNC(=O)c2cc3occc3[nH]2)c1` as the molecule, how does the Potency read?
Answer: inactive

Question: With `Cc1ccc(S(=O)(=O)NCC(=O)N(CC(=O)NCc2ccco2)Cc2ccc(F)cc2)cc1` as the molecule, how does the Potency read?
Answer: inactive

Question: Which Potency does the source give for `CN(C)c1ccc(SC#N)cc1` here?
Answer: inactive

Question: With `Cc1cc(C(=S)N2CCOCC2)c(C)n1-c1ccc(F)cc1` as the molecule, how does the Potency read?
Answer: inactive

Question: For `COC(=O)c1c(NC(=O)CSc2nnc(-c3ccco3)n2Cc2ccccc2)sc(C)c1C`, which Potency is on record?
Answer: inconclusive [inhibitor, partial curve, poor fit]

Question: With `C=C(C)Cn1c(CCCNC(=O)CCC)nc2ccccc21` as the molecule, how does the Potency read?
Answer: inconclusive [inhibitor, partial curve]

Question: For `COc1ccc(C)cc1NC(=O)C(OC(=O)CNC(=O)c1cc(C)cc(C)c1)c1ccccc1` (stereo not given), which Potency is on record?
Answer: inconclusive [inhibitor, single point]

Question: For `CCCOc1ccc(CC(=O)NNC(=S)Nc2ccccc2)cc1Br`, which Potency is on record?
Answer: inactive

Question: With `COc1ccccc1-c1cc(C(=O)Nc2cc(C)on2)no1` as the molecule, how does the Potency read?
Answer: inconclusive [inhibitor, single point]

Question: Which Potency does the source give for `O=C(Nc1ccc(Br)cc1)c1ccc(N2C(=O)C3CC=C(Cl)CC3C2=O)cc1` (stereo not given) here?
Answer: inconclusive [inhibitor, partial curve]

Question: With `CS(=O)(=O)c1cccc(C(=O)Nc2ccc(S(=O)(=O)N3CCCCC3)cc2)c1` as the molecule, how does the Potency read?
Answer: active: 4.47 µM

Question: With `Cc1nc(-c2ccc(C(=O)Nc3ccccc3F)cc2)cs1` as the molecule, how does the activity change, negative = inhibition read?
Answer: inconclusive: -69.5% [inhibitor]

Question: For `CCC(C)(C)C1CCc2c(sc(N)c2C(N)=O)C1` (stereo not given), which Potency is on record?
Answer: inconclusive [inhibitor, single point]

Question: For `COC(=O)c1cc(S(=O)(=O)N2CCN(c3ccccc3F)CC2)c[nH]1`, which Potency is on record?
Answer: inconclusive [inhibitor, full curve, poor fit]

Question: With `CCC(=O)N1CCN(c2nc3ccccc3s2)CC1` as the molecule, how does the Potency read?
Answer: inconclusive [inhibitor, single point]

Question: With `CC(C)c1ccc(OCC(O)CN2CCCC2)cc1` (stereo not given) as the molecule, how does the Potency read?
Answer: inconclusive [inhibitor, single point]

Question: Which Potency does the source give for `NC(=O)N/N=C/c1c(O)ccc2oc3c(c12)CCCC3` here?
Answer: inconclusive [inhibitor, single point]

Question: With `C=C(C)C1Cc2c(C)nn(-c3cccc4ccccc34)c2C1` (stereo not given) as the molecule, how does the Potency read?
Answer: inconclusive [inhibitor, single point]

Question: With `CN(C)CC1CCCCC1OC(=O)c1ccc(Cl)cc1` (stereo not given) as the molecule, how does the Potency read?
Answer: inconclusive [inhibitor, full curve, poor fit]

Question: For `O=C(NC(=S)NNC(=O)c1ccco1)c1ccc(Br)cc1`, which Potency is on record?
Answer: inactive

Question: For `COc1cc2ccccc2cc1C(=O)N(CCN(C)C)c1nc2c(C)cccc2s1`, which Potency is on record?
Answer: inconclusive [inhibitor, partial curve]

Question: Which Potency does the source give for `Cc1ccc(C)c(Cn2nc(-c3ccccc3)ccc2=O)c1` here?
Answer: active: 31.6 µM

Question: For `COc1ccc(-n2c(C)nc3ccccc3c2=O)c([N+](=O)[O-])c1`, which Potency is on record?
Answer: inconclusive [inhibitor, single point]

Question: With `CCOC(=O)c1ccc2c(c1)n(Cc1ccccc1)c(C)[n+]2CC` as the molecule, how does the Potency read?
Answer: inactive

Question: Which Potency does the source give for `COc1ccccc1OCC(=O)Nc1nc(-c2ccc(S(=O)(=O)N3CCOCC3)cc2)cs1` here?
Answer: active: 15.8 µM

Question: Which Potency does the source give for `COc1ccc(C(=O)NCc2ccc(-n3cccc3)cc2)cc1OC` here?
Answer: inconclusive [inhibitor, single point]

Question: For `CCOc1cc(C(=O)Nc2nnc(C)s2)cc(OCC)c1OCC`, which Potency is on record?
Answer: inconclusive [inhibitor, full curve, poor fit]

Question: Which Potency does the source give for `O=C(CCNS(=O)(=O)c1ccccc1C(F)(F)F)NCCCc1ccccc1` here?
Answer: inactive

Question: For `CN(CC(O)COc1c(F)cc(Br)cc1F)C1CCCCC1` (stereo not given), which Potency is on record?
Answer: inactive

Question: Which Potency does the source give for `Cc1ccc(-c2nn(-c3ccccc3)cc2NC(=O)c2ccccc2)cc1` here?
Answer: inconclusive [inhibitor, single point]

Question: With `O=C(NCc1ccccn1)c1cc(Cl)ccc1OCc1ccccc1` as the molecule, how does the Potency read?
Answer: inconclusive [inhibitor, partial curve]

Question: With `CN(c1ccccc1)S(=O)(=O)c1cc(C(=O)OCC(=O)N2CCN(C(=O)c3ccco3)CC2)ccc1Cl` as the molecule, how does the Potency read?
Answer: inconclusive [inhibitor, single point]

Question: Which Potency does the source give for `COc1cc(C(=O)OCc2cccc(S(=O)(=O)N3CCOCC3)c2)ccc1OCC(C)C` here?
Answer: active: 10 µM

Question: For `COc1ccc(/C=C/c2cc(C(F)(F)F)[nH]c(=O)n2)cc1OC`, which Potency is on record?
Answer: inactive

Question: For `CCOc1ccc2nc(SCC(=O)Nc3ccc4c(c3)OCO4)sc2c1`, which Potency is on record?
Answer: inconclusive [inhibitor, partial curve]

Question: With `CCCNCc1cc(OC)c(OCc2ccccc2)cc1Br` as the molecule, how does the Potency read?
Answer: inconclusive [inhibitor, partial curve]

Question: With `COc1ccc(-c2c(C(F)(F)F)[nH]n3c(=O)cc(-c4ccccc4)nc23)cc1` as the molecule, how does the Potency read?
Answer: inactive

Question: Which Potency does the source give for `COc1ccc(C(=O)Nc2ccc(N3CCCCCC3)cc2)cc1S(=O)(=O)N1CCOCC1` here?
Answer: active: 8.91 µM

Question: For `CC(C)N1CCC(=NNc2ccc([N+](=O)[O-])cc2S(=O)(=O)N2CCOCC2)CC1`, which Potency is on record?
Answer: inconclusive [inhibitor, full curve, poor fit]

Question: For `S=C(Nc1ccc(Cl)cc1Cl)NC1CCN(Cc2ccccc2)CC1`, which Potency is on record?
Answer: inconclusive [inhibitor, partial curve]

Question: With `Cc1cc(/C=N/NC(=O)c2cccs2)c(C)n1-c1ccccc1` as the molecule, how does the Potency read?
Answer: inconclusive [inhibitor, partial curve]

Question: Which Potency does the source give for `COc1cccc(C(=O)NC(Cc2ccccc2)c2ccc3c(c2)OCCCO3)c1` (stereo not given) here?
Answer: inconclusive [inhibitor, partial curve, poor fit]

Question: Which Potency does the source give for `CCOC(=O)CC1(NC(=O)C2CCC(=O)N(CCc3ccc(OC)cc3)C2)CCCCC1` (stereo not given) here?
Answer: inactive

Question: For `O=C(CSc1nc(-c2ccco2)cc(C(F)(F)F)n1)NCCCn1ccnc1`, which Potency is on record?
Answer: inconclusive [inhibitor, single point]

Question: Which Potency does the source give for `COc1ccc(C)cc1N(C(=O)c1ccccc1)c1nc2ccccc2s1` here?
Answer: active: 15.8 µM

Question: For `Cc1c(C(=O)Nc2ccc(Oc3ccccc3)cc2)sc2nc3n(c(=O)c12)CCC3`, which Potency is on record?
Answer: active: 6.31 µM

Question: For `COc1ccccc1-c1cc(C(=O)N2CCCc3ccccc32)no1`, which Potency is on record?
Answer: inconclusive [inhibitor, single point]

Question: Which Potency does the source give for `O=C(Nc1cc2c3c(c1)CC(=O)N3CCC2)c1ccc(Cl)cc1` here?
Answer: inconclusive [inhibitor, single point]

Question: With `COc1cc(/C=C(\C#N)c2ccccn2)cc(OC)c1O` as the molecule, how does the Potency read?
Answer: inconclusive [inhibitor, single point]

Question: Which Potency does the source give for `CC(C)C(C(=O)NCC1CCCO1)N(CC1CCCO1)C(=O)CNS(=O)(=O)c1ccccc1` (stereo not given) here?
Answer: inactive

Question: With `CCOC(=O)c1c(NC(=O)C[n+]2ccccc2)sc2c1CCCC2` as the molecule, how does the Potency read?
Answer: inconclusive [inhibitor, single point]

Question: With `COc1cc2c(cc1NC(=O)c1ccncc1)oc1ccccc12` as the molecule, how does the Potency read?
Answer: inconclusive [inhibitor, full curve]

Question: Which Potency does the source give for `CN(C)C=NC1=NN(c2cccc(C(F)(F)F)c2)CC1` here?
Answer: inconclusive [inhibitor, partial curve]

Question: For `Cc1sc2ncnc(SCC(=O)N3CCCC3)c2c1C`, which Potency is on record?
Answer: inconclusive [inhibitor, single point]

Question: Which Potency does the source give for `COc1ccc(/C=N/OCc2ccccc2C#N)c(OC)c1` here?
Answer: inconclusive [inhibitor, single point]

Question: For `CCOc1ccc(CCNC(=O)c2ccc(C)c(NC3=NC4CS(=O)(=O)CC4S3)c2)cc1` (stereo not given), which Potency is on record?
Answer: inactive

Question: For `CCOC(=O)C1CCCN(Cc2cc(=O)oc3cc(C)c(C(C)C)cc23)C1` (stereo not given), which Potency is on record?
Answer: inconclusive [inhibitor, single point]

Question: Which Potency does the source give for `COc1ccc(/C=N/Nc2ccc([N+](=O)[O-])cc2)cc1Cn1cc([N+](=O)[O-])cn1` here?
Answer: inconclusive [inhibitor, full curve]

Question: For `COCCCn1c(=NC(=O)c2ccccc2)c(C#N)cc2c(=O)n3cccc(C)c3nc21`, which Potency is on record?
Answer: inconclusive [inhibitor, full curve]

Question: Which Potency does the source give for `Cc1cc(Br)cnc1NC(=S)Nc1ccc(F)cc1F` here?
Answer: active: 10 µM

Question: For `COc1ccc(-c2cn(Cc3cccc(OC)c3)nn2)cc1`, which Potency is on record?
Answer: inconclusive [inhibitor, single point]

Question: For `Cc1nc2ccc(C(=O)N3CCN(Cc4ccccc4)CC3)cc2[nH]1`, which Potency is on record?
Answer: inactive

Question: With `C=CCOc1nc2sc(C)c(C)c2c(=O)n1-c1ccccc1` as the molecule, how does the Potency read?
Answer: inactive
